{
  "source": "paper PMC11995724",
  "about": "“Antibiotic target discovery by integrated phenotypic and activity-based profiling of electrophilic fragments” (Cell chemical biology, 2025)",
  "note": "The whole screen tested about 3,200 compounds, of which about 75 (2%) showed an effect of 50% or more. This is one part of the list.",
  "data": [
    {"system": "T1, S. aureus MSSA476", "T1 construct": "MSSA476", "design": "species or system S. aureus MSSA476 (TSB) or V. cholerae SAD30 (LB); 384-well bacterial growth screen at 25 uM, OD600 relative to DMSO control", "conditions": "relative growth, OD600, TSB; 25 µM; inhibitor", "units": {"% of control remaining": "%"}, "values": [
      {"smiles": "O=C(CCl)Nc1cc(C(F)(F)F)ccc1Cl", "note": "[4-J04, 2-chloro-N-[2-chloro-5-(trifluoromethyl)phenyl]acetamide]", "% of control remaining": 129.967},
      {"smiles": "CC(Cl)C(=O)NC1CCCCC1", "note": "(stereo not shown) [4-O06, 2-chloro-N-cyclohexylpropanamide]", "% of control remaining": 79.2758},
      {"smiles": "COc1cccc(N2C(=O)C=CC2=O)c1", "note": "[10-K03, 1-(3-methoxyphenyl)-2,5-dihydro-1H-pyrrole-2,5-dione]", "% of control remaining": 124.375},
      {"smiles": "C=CC(=O)N(C)Cc1ccn(CC)n1", "note": "[1-L16, N-[(1-ethyl-1H-pyrazol-3-yl)methyl]-N-methylprop-2-enamide]", "% of control remaining": 121.319},
      {"smiles": "Cc1cc(NS(=O)(=O)c2ccc(NC(=O)CCl)cc2)nc(C)n1", "note": "[5-I09, 2-chloro-N-{4-[(2,6-dimethylpyrimidin-4-yl)sulfamoyl]phenyl}acetamide]", "% of control remaining": 100.182},
      {"smiles": "Cc1noc(C)c1CN(C)C(=O)CCl", "note": "[5-G06, 2-chloro-N-[(3,5-dimethyl-1,2-oxazol-4-yl)methyl]-N-methylacetamide]", "% of control remaining": 96.5392},
      {"smiles": "CC(C)c1ccc(CC(=O)CCl)cc1", "note": "[10-I17, 1-chloro-3-[4-(propan-2-yl)phenyl]propan-2-one]", "% of control remaining": 109.375},
      {"smiles": "C=CC(=O)N(C)C[C@@H]1CCC(=O)N1", "note": "[3-A22, N-methyl-N-{[(2S)-5-oxopyrrolidin-2-yl]methyl}prop-2-enamide]", "% of control remaining": 138.964},
      {"smiles": "C=CC(=O)NC(c1nc(C)cs1)C(F)(F)F", "note": "(stereo not shown) [2-I17, N-[2,2,2-trifluoro-1-(4-methyl-1,3-thiazol-2-yl)ethyl]prop-2-enamide]", "% of control remaining": 113.838},
      {"smiles": "C=CC(=O)NCc1ccc(C(=O)N2CCCC2)cc1", "note": "[3-O05, N-{[4-(pyrrolidine-1-carbonyl)phenyl]methyl}prop-2-enamide]", "% of control remaining": 88.8115},
      {"smiles": "CNC(=O)c1cc(OC2CCCN(C(=O)CCl)C2)ccn1", "note": "(stereo not shown) [5-P05, 4-{[1-(2-chloroacetyl)piperidin-3-yl]oxy}-N-methylpyridine-2-carboxamide]", "% of control remaining": 85.9745},
      {"smiles": "Cc1ccc(C=C(C#N)C(=O)NC(N)=O)o1", "note": "[8-D21, {2-cyano-2-[(5-methylfuran-2-yl)methylidene]acetyl}urea]", "% of control remaining": 99.917},
      {"smiles": "COc1ccc(-c2csc(NC(=O)CCl)n2)c(OC)c1", "note": "[4-F12, 2-chloro-N-[4-(2,4-dimethoxyphenyl)-1,3-thiazol-2-yl]acetamide]", "% of control remaining": 83.4683},
      {"smiles": "CC(Cl)C(=O)Nc1ccc2ccccc2c1", "note": "(stereo not shown) [5-H10, 2-chloro-N-(naphthalen-2-yl)propanamide]", "% of control remaining": 121.311},
      {"smiles": "CC(C)CNC(=O)c1ccccc1NC(=O)CCl", "note": "[4-E04, 2-(2-chloroacetamido)-N-(2-methylpropyl)benzamide]", "% of control remaining": 88.4231},
      {"smiles": "Cc1ccc(C(=O)c2ccccc2NC(=O)CCl)cc1", "note": "[4-N17, 2-chloro-N-[2-(4-methylbenzoyl)phenyl]acetamide]", "% of control remaining": 134.54},
      {"smiles": "CC(Cl)C(=O)Nc1ncnc2[nH]cnc12", "note": "(stereo not shown) [6-I18, 2-chloro-N-(9H-purin-6-yl)propanamide]", "% of control remaining": 96.9756},
      {"smiles": "Cl.O=C1C=CC(=O)N1C1CNC1", "note": "[10-O19, 1-(azetidin-3-yl)-2,5-dihydro-1H-pyrrole-2,5-dione hydrochloride]", "% of control remaining": 105.313},
      {"smiles": "N#CC(=CC1=Cc2ccccc2OC1)C(=O)Nc1ccc(C(=O)O)cc1", "note": "[8-N08, 4-[3-(2H-chromen-3-yl)-2-cyanoprop-2-enamido]benzoic acid]", "% of control remaining": 101.245},
      {"smiles": "CC(Cl)C(=O)NCCN(C)S(=O)(=O)c1cccs1", "note": "(stereo not shown) [7-F05, 2-chloro-N-[2-(N-methylthiophene-2-sulfonamido)ethyl]propanamide]", "% of control remaining": 88.54},
      {"smiles": "COc1cc(NC(=O)C(C)Cl)cc(OC)c1", "note": "(stereo not shown) [4-I04, 2-chloro-N-(3,5-dimethoxyphenyl)propanamide]", "% of control remaining": 105.574},
      {"smiles": "N#CC(C(=O)Nc1ccc2c(c1)OCCO2)=C1N=C(N)c2ccccc21", "note": "[8-L03, 2-(3-amino-1H-isoindol-1-ylidene)-2-cyano-N-(2,3-dihydro-1,4-benzodioxin-6-yl)acetamide]", "% of control remaining": 128.133},
      {"smiles": "CC(Cl)C(=O)NC(C)c1nnc2n1CCCC2", "note": "(stereo not shown) [6-H13, 2-chloro-N-(1-{5H,6H,7H,8H-[1,2,4]triazolo[4,3-a]pyridin-3-yl}ethyl)propanamide]", "% of control remaining": 109.268},
      {"smiles": "CCN(C(=O)CCl)C(c1ccccc1)c1ccc(F)cc1", "note": "(stereo not shown) [6-J11, 2-chloro-N-ethyl-N-[(4-fluorophenyl)(phenyl)methyl]acetamide]", "% of control remaining": 92.878},
      {"smiles": "O=C1C=CC(=O)N1c1ccc2ccccc2c1", "note": "[10-D07, 1-(naphthalen-2-yl)-2,5-dihydro-1H-pyrrole-2,5-dione]", "% of control remaining": 3.125},
      {"smiles": "Cc1noc(C)c1C(=O)CCl", "note": "[10-K13, 2-chloro-1-(3,5-dimethyl-1,2-oxazol-4-yl)ethan-1-one]", "% of control remaining": 89.375},
      {"smiles": "C=CC(=O)Nc1ccoc1C(=O)c1ccc(C)cc1", "note": "[1-A04, N-[2-(4-methylbenzoyl)furan-3-yl]prop-2-enamide]", "% of control remaining": 113.934},
      {"smiles": "CC1CN(S(=O)(=O)c2ccc(NC(=O)CCl)cc2)CC(C)O1", "note": "(stereo not shown) [5-O15, 2-chloro-N-{4-[(2,6-dimethylmorpholin-4-yl)sulfonyl]phenyl}acetamide]", "% of control remaining": 94.7177},
      {"smiles": "C=CC(=O)Nc1ccc(CN2CCC(C)CC2)cc1", "note": "[1-D21, N-{4-[(4-methylpiperidin-1-yl)methyl]phenyl}prop-2-enamide]", "% of control remaining": 103.033},
      {"smiles": "C=CC(=O)NCc1nnc(COC)[nH]1", "note": "[3-F10, N-{[5-(methoxymethyl)-4H-1,2,4-triazol-3-yl]methyl}prop-2-enamide]", "% of control remaining": 90.9012},
      {"smiles": "C=CCNC(=O)C(C#N)=Cc1cc(C)n(-c2ccc(C)cc2)c1C", "note": "[8-C17, 2-cyano-3-[2,5-dimethyl-1-(4-methylphenyl)-1H-pyrrol-3-yl]-N-(prop-2-en-1-yl)prop-2-enamide]", "% of control remaining": 70.0415},
      {"smiles": "C=CC(=O)NCc1cc(-c2cccc(OC)c2)no1", "note": "[1-I11, N-{[3-(3-methoxyphenyl)-1,2-oxazol-5-yl]methyl}prop-2-enamide]", "% of control remaining": 116.747},
      {"smiles": "C=CC(=O)N1CCCC(S(=O)(=O)NC)C1", "note": "(stereo not shown) [3-D17, N-methyl-1-(prop-2-enoyl)piperidine-3-sulfonamide]", "% of control remaining": 96.8219},
      {"smiles": "C=CC(=O)Nc1ccc(C2=NNC(=O)CO2)cc1", "note": "[3-L18, N-[4-(5-oxo-5,6-dihydro-4H-1,3,4-oxadiazin-2-yl)phenyl]prop-2-enamide]", "% of control remaining": 120.853},
      {"smiles": "CC(Cl)C(=O)N(Cc1ccc(Cl)cc1)Cc1cnn(C)c1", "note": "(stereo not shown) [5-P17, 2-chloro-N-[(4-chlorophenyl)methyl]-N-[(1-methyl-1H-pyrazol-4-yl)methyl]propanamide]", "% of control remaining": 95.4463},
      {"smiles": "C=CC(=O)NCc1ccc(-n2ccc(C)n2)nc1", "note": "[3-H16, N-{[6-(3-methyl-1H-pyrazol-1-yl)pyridin-3-yl]methyl}prop-2-enamide]", "% of control remaining": 95.7771},
      {"smiles": "CC(Cl)C(=O)N1CCOCC1c1nc(-c2cccs2)no1", "note": "(stereo not shown) [7-B17, 2-chloro-1-{3-[3-(thiophen-2-yl)-1,2,4-oxadiazol-5-yl]morpholin-4-yl}propan-1-one]", "% of control remaining": 100.157},
      {"smiles": "C=CC(=O)N1CCC(C(=O)N2CCc3ccc([N+](=O)[O-])cc32)CC1", "note": "[1-C06, 1-[4-(6-nitro-2,3-dihydro-1H-indole-1-carbonyl)piperidin-1-yl]prop-2-en-1-one]", "% of control remaining": 93.8901},
      {"smiles": "C=CC(=O)N[C@H]1CCCC[C@H]1n1cc(C(C)(C)O)nn1", "note": "[1-P07, N-[(1S,2R)-2-[4-(2-hydroxypropan-2-yl)-1H-1,2,3-triazol-1-yl]cyclohexyl]prop-2-enamide]", "% of control remaining": 85.8022},
      {"smiles": "Cn1ccnc1Sc1ccc(C=C(C#N)C(N)=O)cc1[N+](=O)[O-]", "note": "[8-D03, 2-cyano-3-{4-[(1-methyl-1H-imidazol-2-yl)sulfanyl]-3-nitrophenyl}prop-2-enamide]", "% of control remaining": 97.9253},
      {"smiles": "CN(C)S(=O)(=O)c1ccccc1CNC(=O)CCl", "note": "[4-J22, 2-chloro-N-{[2-(dimethylsulfamoyl)phenyl]methyl}acetamide]", "% of control remaining": 126.155},
      {"smiles": "Cc1ccc(NC(=O)N2CCSSCC2)c(C)c1", "note": "[10-F11, N-(2,4-dimethylphenyl)-1,2,5-dithiazepane-5-carboxamide]", "% of control remaining": 91.5625},
      {"smiles": "C=CC(=O)N1CCC(C(=O)N[C@H](C)c2ccc3c(c2)CCCC3)CC1", "note": "[3-P12, 1-(prop-2-enoyl)-N-[(1R)-1-(5,6,7,8-tetrahydronaphthalen-2-yl)ethyl]piperidine-4-carboxamide]", "% of control remaining": 85.677},
      {"smiles": "O=C(CCl)NC1CCS(=O)(=O)c2ccc(F)cc21", "note": "(stereo not shown) [7-H06, 2-chloro-N-(6-fluoro-1,1-dioxo-3,4-dihydro-2H-1lambda6-benzothiopyran-4-yl)acetamide]", "% of control remaining": 94.1915},
      {"smiles": "N#CC(=Cc1ccc(O)c(O)c1)C(=O)Nc1cccc(Cl)c1Cl", "note": "[8-F07, 2-cyano-N-(2,3-dichlorophenyl)-3-(3,4-dihydroxyphenyl)prop-2-enamide]", "% of control remaining": 87.3029},
      {"smiles": "C=CC(=O)NCCS(=O)(=O)c1cccs1", "note": "[3-J17, N-[2-(thiophene-2-sulfonyl)ethyl]prop-2-enamide]", "% of control remaining": 101.001}
    ]}
  ]
}
